The values below come from PubChem BioAssay AID488969 (Vanderbilt High Throughput Screening Facility, 2010).

Whole data set: some 110,000 compounds, median “z-score” near -0.1, cut for the highest 2% near 2. The list shows a part of the results. The source made the active and inactive calls.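 Rule for the calls: active = z-score in the third read window above 3 or below -3; inactive = the rest.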

In the assay the target is Metabotropic glutamate receptor 8 (Rattus norvegicus) (UniProt P70579). Description: mGluR8 Gi/Go-coupled signaling modulation – cell-based, rat, thallium flux, HTS, primary screen (AID 488969). As to conditions: HEK293 rat mGluR8, GIRK (G protein-gated inwardly rectifying potassium channel) thallium flux, FluoZin2; at 10 µM; stronger effect = higher value; submaximal glutamate (EC20) added with thallium.
Chain of UniProt P70579 (P70579 whole entry, looked up): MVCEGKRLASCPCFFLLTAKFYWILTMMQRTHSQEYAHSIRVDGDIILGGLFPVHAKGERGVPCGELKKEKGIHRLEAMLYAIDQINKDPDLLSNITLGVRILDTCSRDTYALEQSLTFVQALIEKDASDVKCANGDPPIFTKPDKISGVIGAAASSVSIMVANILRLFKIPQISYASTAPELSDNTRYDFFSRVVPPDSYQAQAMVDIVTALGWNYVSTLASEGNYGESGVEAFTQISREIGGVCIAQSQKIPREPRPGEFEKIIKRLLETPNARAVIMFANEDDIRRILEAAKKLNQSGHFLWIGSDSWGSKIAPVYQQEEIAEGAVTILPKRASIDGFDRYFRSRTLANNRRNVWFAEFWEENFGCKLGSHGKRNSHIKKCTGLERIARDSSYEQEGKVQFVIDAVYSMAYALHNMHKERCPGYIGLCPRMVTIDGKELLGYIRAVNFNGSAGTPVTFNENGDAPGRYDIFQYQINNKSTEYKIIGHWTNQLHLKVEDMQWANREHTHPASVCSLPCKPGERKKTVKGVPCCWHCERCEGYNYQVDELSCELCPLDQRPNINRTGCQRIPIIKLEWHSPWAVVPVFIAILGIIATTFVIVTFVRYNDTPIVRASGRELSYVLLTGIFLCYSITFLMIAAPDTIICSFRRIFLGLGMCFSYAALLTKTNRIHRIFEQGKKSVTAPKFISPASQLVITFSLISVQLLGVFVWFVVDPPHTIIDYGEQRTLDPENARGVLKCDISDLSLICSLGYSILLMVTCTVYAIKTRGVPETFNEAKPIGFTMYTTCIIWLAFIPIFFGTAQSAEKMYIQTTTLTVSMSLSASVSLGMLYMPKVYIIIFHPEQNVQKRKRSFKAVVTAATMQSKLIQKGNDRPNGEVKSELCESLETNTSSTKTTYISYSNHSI
For the compound `O=C(Nc1ccc(Cl)cn1)Nc1ccccc1Cl`, the z-score was -0.18.

Compound `O=c1c(-c2cccc3ccccc23)[n+]([O-])c2ccccc2n1O` displayed a z-score of 1.08.

With `O=C(Nc1ccccc1N1CCCCC1)c1ccc(-c2cccc(Cl)c2)o1`, the z-score was -0.572.

With `COc1ccccc1Oc1coc2cc(O)ccc2c1=O`, the z-score is -0.815.

The compound `Cc1c(Cl)c(C(=O)NNC(=S)NCc2ccco2)nn1C` had a z-score of 0.977.

Turning to `CSCCC(Nc1ccc(S(=O)(=O)N2CCOCC2)cc1[N+](=O)[O-])C(=O)OCC(=O)N(C(C)C)C(C)C` (stereo unspecified), the z-score is -0.22.

For the compound `CN1/C(=C\C(=S)NC(=O)c2cccc(Br)c2)C(C)(C)c2ccccc21`, the z-score was -0.0589.

Take `CN1c2ccsc2C(O)=C(C(=O)Nc2ccccc2)S1(=O)=O`: the z-score is -0.00654.

`Cc1ccc(Cn2cnc3c(nnn3Cc3ccc(Cl)cc3)c2=O)cc1` had a z-score of 0.0536.

Regarding `CCN(CC)c1ccc(CC(=O)NC(C)Cc2ccccc2)cc1` (stereo unspecified), the z-score is -0.346.

`Cc1cccc(Oc2ccccc2N)c1`: the z-score was -0.0133.

Consider `Cc1ccc(NC(=O)Cn2c(O)c(N=NC(=O)c3cc4ccccc4cc3O)c3ccccc32)cc1`, for which the z-score is -0.306.

Turning to `OC(COCc1cccs1)CN1CCN(c2ccccc2Cl)CC1` (stereo unspecified), the z-score is -0.266.

`COC(=O)CNC(=O)c1c(-c2c(Cl)cccc2Cl)noc1C`: the z-score was -0.207.

As for `CCc1cccc(OCCn2ccnc2)c1`, the z-score was -0.244.

For the compound `Cc1nc2ccc(NC(=O)c3ccc(Cl)c(NC(=O)c4cccs4)c3)cc2s1`, the z-score was -0.465.

Take `Cc1nn(Cc2cccc(C(=O)Nc3ccn(Cc4c(F)c(F)cc(F)c4F)n3)c2)c(C)c1[N+](=O)[O-]`: the z-score was -1.37.

`CCCCn1nnnc1SCC(=O)Nc1ccc(F)cc1`: the z-score is -0.316.

On to `O=C(NC(=S)Nc1ccc(N2CCCCC2)c(Cl)c1)c1cccs1`, for which the z-score is active: 8.72.

Compound `Cc1cc(N2CCCCC2)c(F)cc1[N+](=O)[O-]` had a z-score of 0.131.

In the case of `CC1CN(Cc2ccc(Cl)cc2Cl)CC(C)O1` (stereo unspecified), the z-score was -0.415.

As for `COc1ccc(Cl)cc1C(=O)N(Cc1nc(-c2cccc(C)c2)no1)C(C)C`, the z-score was -0.251.

`Nc1nnc(Sc2ccc(Cl)cc2[N+](=O)[O-])s1` displayed a z-score of 0.0654.

As for `CC1(C)Cc2c(ccc3ccccc23)/C(=C/C(=O)N2CCCCC2)N1`, the z-score was 0.884.

`CCOC(=O)c1nnc(-c2ccc(C)cc2)nc1Sc1cccc(Cl)c1`: the z-score was -0.0701.

`CCc1nnc(NC(=O)CCN2C(=O)c3ccccc3C2=O)s1` displayed a z-score of 0.727.

`O=C(CSc1nc2ccccc2[nH]1)NC1CCS(=O)(=O)C1` (stereo unspecified) returned a z-score of 0.148.

In the case of `Cc1ccc2c(c1)cc(CN(CCc1ccccc1)C(=O)N1CCOCC1)c1nnnn12`, the z-score was -0.223.

As for `O=C(CSc1nnc(Cc2cccs2)n1-c1ccccc1)NCc1ccc2c(c1)OCO2`, the z-score is -0.498.

Regarding `O=C1CC(c2cccc(Cl)c2)Cc2nc(N3CCOCC3)ncc21` (stereo unspecified), the z-score was -0.835.

Turning to `Cc1cccc(C(=O)Oc2ccccc2/C=N/NC(=O)c2ccc(NC(=O)C(C)(C)C)cc2)c1`, the z-score was -0.83.
